Sequences and labels used below:
T1: UNK ZnF1-3 (human, UniProt Q9C0B0 31-174)
T1 sequence: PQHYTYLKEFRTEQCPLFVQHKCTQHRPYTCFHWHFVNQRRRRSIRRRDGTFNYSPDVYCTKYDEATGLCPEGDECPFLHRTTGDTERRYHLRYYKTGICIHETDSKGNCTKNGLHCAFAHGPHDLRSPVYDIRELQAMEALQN

B1: chr11:46405157:46405158:+_ENSG00000110492_ENST00000395566|hu_hu|hu_hu_hu_mus_False|28_68 (ssRNA)
RNA: GGGAGUUCUACAGUCCGACGAUCCCCUCCCCACUUUGGGCACUUGGUGUGGGCGUGAGAGGACAGGAUGAUUGAUUAGAGCUGACAGGAAGACAAAAGGCACUGGUGGGUCACAUCUUGGGCCUGUGGGAGAGGAGGGCUCCGCAACAGAGGAUUGAGCAUCA
B2: chr1:118462952:118462953:-_ENSG00000196505_ENST00000369442|hu_mus|FALSE|FALSE (ssRNA)
RNA: GGGAGUUCUACAGUCCGACGAUCCGUACGAGUCGCCCCAGCUUAGCAGGGUAUCCACAUCCACAAACUGGGAAGGUGCACCCAAGGGAUCCAUGGAAUGGGAGCUUCAGCUCGUGAACCAAACUCUUUGGCAAUUCAACAAUCCAACAGAGGAUUGAGCAUCA
B3: 109674737_109693794_237_CDS_ENSMUSG00000031924_ENSMUST00000034400|mouse|control|control (ssRNA)
RNA: GGGAGUUCUACAGUCCGACGAUCAUCAGGGGAGUGGCCGACAUCUUCAAAGCUUUCAGUUGCAUCAGCACCCGCUUGUUCCAGCAGAACCUCUUCCCCGCCAGGAUGCUCGCUGAGGAAGCGGGUGAUAUCGUAGACUCGCCCCAACAGAGGAUUGAGCAUCA
B4: chr18:42480448:42480449:+_ENSMUSG00000024491_ENSMUST00000091920|mus_hu|FALSE|FALSE (ssRNA)
RNA: GGGAGUUCUACAGUCCGACGAUCGAAGUGUUCAUUGAGCUUGGUAAUGUUGUUCAAUUCCUGAGGGAUUUUCUUGACUUCUAAUUUGGUGUUUGUAUACUGAUUCUUUCGUAAGAACCCUGGUUUAUUUUGAUUGUUAUUUCCCAACAGAGGAUUGAGCAUCA
B5: chr1:231410971:231410972:+_ENSG00000116906_ENST00000366647|hu_hu|motif|central (ssRNA)
RNA: GGGAGUUCUACAGUCCGACGAUCCAAAAGGUACUUGCAAAUUAUCUGAUAGCUUUCCACAAAAGGUUUAAAGAGUCCGGCGGAAAAUUCUAACACAGUAUUUCCUUUCUCUGUAACUAGGAUGUCUUUCGUAGUCACUUGUAUCAACAGAGGAUUGAGCAUCA
B6: chr11:102258902:102258903:+_ENSMUSG00000006575_ENSMUST00000006750|mus_hu|FALSE|FALSE (ssRNA)
RNA: GGGAGUUCUACAGUCCGACGAUCAAAAUUGACAAACUCCUCCGAUGAGUCAUCGAUGGGCUCCGCUGUGUACUUCUCCAGCAGCGUUUUCACAGAGAACCUGCACACGGUGAUCAGGUUCUUACGCUCCACAGCCACGUUGCGCAACAGAGGAUUGAGCAUCA
B7: chr7:90019433:90019434:+_ENSMUSG00000057706_ENSMUST00000082237|mus_hu|FALSE|FALSE (ssRNA)
RNA: GGGAGUUCUACAGUCCGACGAUCAAAUAAUACAGUGUUCUUUGCCAUAAGGCCAUACUAAAAUAAAAAGAUUUAACCCAGCUACAAAAAAGUUCACUGAACUUAAAUUAAAAUACUUGUAAACAUCUUUGCAAUAUGAAAUAUCAACAGAGGAUUGAGCAUCA
B8: chr16:45382771:45382772:-_ENSMUSG00000022661_ENSMUST00000163230|mus_mus|mus_mus_mus_hu_True|1_98 (ssRNA)
RNA: GGGAGUUCUACAGUCCGACGAUCCUGGGUCAUGUUAUGGGCCCAAUGGACAGGGAGGGCAUGCUUCUCAAAAAAUGUGAGCUAUUGUCUAAGACUAACAAUAUUUAUCUAGCUAUAAAAAUAAGUUAAAUGAAUAAACAUUACCAACAGAGGAUUGAGCAUCA
B9: chr16:94651144:94651145:+_ENSMUSG00000040785_ENSMUST00000117648|mus_hu|mus_mus_mus_hu_True|28_108 (ssRNA)
RNA: GGGAGUUCUACAGUCCGACGAUCAUUCUCUUGGAUCAAGUGGCGAAUAACAUAGUCCACUGCUUCAUUUAGAAAAUUUCUGCUAGAAAAACAGGUUGUAUAGUCUUCCGUGCUCAGAACUUUCCAAGAAAGCAAUUCUUUGAGCAACAGAGGAUUGAGCAUCA
B10: chr3:41265538:41265539:+_ENSG00000168036_ENST00000349496|hu_mus|FALSE|FALSE (ssRNA)
RNA: GGGAGUUCUACAGUCCGACGAUCCAUGUCCAACUCCAUCAGGUCAGCUUGAGUAGCCAUUGUCCACGCAGCGGUGUCACAGCAGCUGUGCGCUGAGCUUCAGGUACCCUCAGGCCCGCGCGCUGCUCACUCGCGGCCGCCCGCCAACAGAGGAUUGAGCAUCA
B11: chr14:102233281:102233282:+_ENSG00000078304_ENST00000556260|hu_hu|motif|central (ssRNA)
RNA: GGGAGUUCUACAGUCCGACGAUCACUUCUAAAAAUGUAACAUUGGACACAGUACACACACUUAAAAGAAACAACACCCACCGGUGGUCUGAUCUUACAAAAUGGACUUGAGGAAACUCAGAGCAAUUUAUUAACAUUCUAAAUCAACAGAGGAUUGAGCAUCA
B12: 51805483_51809604_565_3pUTR_ENSMUSG00000022314_ENSMUST00000022927|mouse|control|control (ssRNA)
RNA: GGGAGUUCUACAGUCCGACGAUCAUAUCAUCUAAAUCUGGCAGUGGCUGAUCAAAAUCGUGGAAUUCCUCAGGUAAAGUAAUGGCAUUAUAAGCUGCUUCCCGAUUUUCCUCAGGUAGAUCGACAACACCUGGCCGAAACGCCCAACAGAGGAUUGAGCAUCA
B13: chr12:12974248:12974249:+_ENSG00000213782_ENST00000358007|hu_hu|motif|central (ssRNA)
RNA: GGGAGUUCUACAGUCCGACGAUCCAGGGCUUCAAACUGCUCUGAGAUCUGAAAGGCCAGCUCCCGAGUCGGGGUAAGAACGGGGGCAAACAAACGCUGCGGGGUCUCCAGCAGUGCGUUUAGAAUGGGCAAAGCAAAGGCGCCCAACAGAGGAUUGAGCAUCA
B14: chr12:46205223:46205224:+_ENSG00000189079_ENST00000334344|hu_mus|FALSE|FALSE (ssRNA)
RNA: GGGAGUUCUACAGUCCGACGAUCCUGUGGCUUUGGAUUGCCUGGUGGUACCUCAUCAUCAUCUUCCCCAAAAUGAUGAACUUUCUCGUACUUUUCUAGAUAACGCAAGUAAUACUGUUUUAAAGCAAAGGCAGCGUUGGAACACAACAGAGGAUUGAGCAUCA

Some of the results follow.

The experiment deals with T1, UNK ZnF1-3. As to the kind of experiment: nsRBNS (natural sequence RNA bind-n-seq); RBNS binding buffer (assumed for nsRBNS): 25 mM Tris pH 7.5, 150 mM KCl, 3 mM MgCl2, 0.01% Triton X-100, 500 ug/ml BSA, 20 U/ml SUPERase-In, 4 C; UNK is unkempt and MSI1 is Musashi-1; names of the RNAs are library labels; protein concentration not given here; high values mean tight binding.
Regarding B1, the binding signal amounted to 2 enrichment R.
In turn, B2 came in with a binding signal of 1.61 enrichment R.
Next, B3: 0.78 enrichment R; B4: 0.32 enrichment R; B5: 0.594 enrichment R.
Next, B6: 0.659 enrichment R.
As for B7, the figure is 2.09 enrichment R.
With B8, the binding signal was 0.926 enrichment R.
Next, B9: 0.694 enrichment R; B10: 0.504 enrichment R; B11: 2.05 enrichment R.
B12 gave a binding signal of 1.33 enrichment R.
Next, B13: 1.62 enrichment R.
As for B14, the figure is 0.95 enrichment R.

The values above are taken from article PMC12136788.
